The assay has as its target T1, FtsB_(25–103) (E. coli, UniProt P0A6S5 25-103).
T1 construct: In the crystal only residues 61–95 were seen; the authors think that residues 25–60 may have been cleaved off during purification and crystallisation; also called C-terminal fragment of FtsB; not shown: GST, N-terminal, cleaved
T1 sequence (looked up): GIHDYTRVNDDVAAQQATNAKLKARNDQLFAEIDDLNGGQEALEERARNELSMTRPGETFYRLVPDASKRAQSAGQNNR
Description: SEC; analytical gel filtration, Superdex 200 10/300 GL, buffer B (20 mM Tris-HCl pH 8.0, 200 mM NaCl), 0.5 mL/min; high concentrations (101–370 μM); apparent Stokes radius compared with radii calculated from models. The following applies: both partners purified.

B1: FtsQ_([…]) F87A (domain or fragment)
chain: not shown
notes: also called FtsQB F87A mutant
For the molecule B1, the “stoichiometry N” value was 1 FtsQ:FtsB ratio (2:2).

B2: FtsQ_([…]) L57R (domain or fragment)
chain: not shown
notes: also called FtsQB L57R mutant
B2: the “stoichiometry N” value was 1 FtsQ:FtsB ratio (2:2).

(Values after PMC6305486, “Structural Insights into the FtsQ/FtsB/FtsL Complex, a Key Component of the Divisome” (Scientific Reports, 2018).)
